Assay results from patent US7592316B2, “Peptides as NS3-serine protease inhibitors of hepatitis C virus” (Schering Corporation, priority 2000, dated 2009).

Each molecule was assayed against HCV NS3/NS4A protease (strain 1a) (Hepatitis C virus genotype 1a, UniProt P27958) (assay: biochemical). Conditions: Table 5; HCV NS3/NS4A protease, spectrophotometric assay, 30° C., pH 6.5; read-out: Ki* Range.
With `CCC(NC(=O)[C@@H]1[C@@H]2[C@H](CN1C(=O)[C@@H](NC(=O)OC(C)(C)C)C(C)(C)C)C2(C)C)C(=O)C(=O)O` (some centres unmarked) the Ki was greater than 1000 nM.
Work on `CCC(NC(=O)[C@@H]1[C@@H]2[C@H](CN1C(=O)[C@@H](NC(=O)OC(C)(C)C)C(C)(C)C)C2(C)C)C(=O)C(=O)OC` (some centres unmarked) yielded a Ki greater than 1000 nM.
In the case of `CCC(NC(=O)[C@@H]1[C@@H]2[C@H](CN1C(=O)[C@@H](NC(=O)OC(C)(C)C)C1CCCCC1)C2(C)C)C(=O)C(=O)OC` (some centres unmarked), the Ki is reported as greater than 1000 nM.
For `COC(=O)C(=O)C(CC1CCC1)NC(=O)C1C2C(CN1C(=O)[C@@H](NC(=O)NC(C)(C)C)C(C)(C)C)C2(C)C` (some centres unmarked), the Ki was greater than 1000 nM.
With `CCCCC(NC(=O)[C@@H]1[C@H]2[C@@H](CN1C(=O)[C@@H](NC(=O)OC(C)(C)C)C(C)(C)C)C2(C)C)C(=O)C(=O)NOC` (some centres unmarked) the Ki was 101 to 1000 nM.
Work on `C=CCNC(=O)C(=O)C(CCC)NC(=O)[C@@H]1[C@H]2[C@@H]3CC[C@@H](C3)[C@H]2CN1C(=O)[C@@H](NC(=O)OCC(C)C)C(C)(C)C` (some centres unmarked) yielded a Ki greater than 1000 nM.
Molecule `C=CCNC(=O)C(=O)C(CCC)NC(=O)[C@@H]1[C@H]2OC(C)(C)O[C@H]2CN1C(=O)[C@@H](NC(=O)OC(C)(C)C)C(C)(C)C` (some centres unmarked) has a Ki greater than 1000 nM.
In the case of `C=CCNC(=O)C(=O)C(CCCC)NC(=O)[C@@H]1[C@H]2OC(C)(C)O[C@H]2CN1C(=O)[C@@H](NC(=O)OC(C)(C)C)C(C)(C)C` (some centres unmarked), the Ki is reported as greater than 1000 nM.
`C=CCNC(=O)C(=O)C(CCC)NC(=O)C1CCCN1C(=O)C(NC(=O)OC(C)(C)C)C(C)(C)C` (centres unmarked) gave a Ki greater than 1000 nM.
`C=CCC(NC(=O)[C@@H]1C2C(CN1C(=O)[C@@H](NC(=O)OC(C)(C)C)C(C)(C)C)C2(C)C)C(=O)C(=O)NCC(=O)NCCc1ccccc1` (some centres unmarked) was tested, and the Ki was 101 to 1000 nM.
Work on `C=CCNC(=O)C(=O)C(CCCC)NC(=O)[C@@H]1[C@@H]2[C@H](CN1C(=O)[C@@H](NC(=O)OC(C)(C)C)C(C)(C)C)C2(C)C` (some centres unmarked) yielded a Ki greater than 1000 nM.
`C=CCNC(=O)C(=O)C(CCC)NC(=O)[C@@H]1[C@@H](OC(C)(C)C)CCN1C(=O)[C@@H](NC(=O)OC(C)(C)C)C(C)(C)C` (some centres unmarked) was tested, and the Ki was greater than 1000 nM.
Molecule `C=CCNC(=O)C(=O)C(CCCC)NC(=O)[C@@H]1[C@@H](OC(C)(C)C)CCN1C(=O)[C@@H](NC(=O)OC(C)(C)C)C(C)(C)C` (some centres unmarked) has a Ki greater than 1000 nM.
Work on `C=CCCC(NC(=O)[C@@H]1[C@@H]2[C@H](CN1C(=O)[C@@H](NC(=O)OC(C)(C)C)C(C)(C)C)C2(C)C)C(=O)C(=O)NCC(=O)NCc1ccccc1` (some centres unmarked) yielded a Ki greater than 1000 nM.
Work on `C=CCC(NC(=O)[C@@H]1[C@@H]2[C@H](CN1C(=O)[C@@H](NC(=O)OC(C)(C)C)C(C)(C)C)C2(C)C)C(=O)C(=O)NCC(=O)Nc1ccccc1` (some centres unmarked) yielded a Ki of 101 to 1000 nM.
In the case of `C=CCC(NC(=O)[C@@H]1[C@@H]2[C@H](CN1C(=O)[C@@H](NC(=O)OC(C)(C)C)C(C)(C)C)C2(C)C)C(=O)C(=O)NCC(=O)NCc1ccc(C)cc1` (some centres unmarked), the Ki is reported as 1 to 100 nM.
Molecule `C=CCNC(=O)C(=O)C(CCC)NC(=O)[C@@H]1[C@@H]2[C@H](CN1C(=O)[C@@H](NC(=O)OC(C)(C)C)C1CCCCC1)C2(C)C` (some centres unmarked) has a Ki of 101 to 1000 nM.
In the case of `CCCC(NC(=O)[C@@H]1CC(C)(C)CN1C(=O)[C@@H](NC(=O)OC(C)(C)C)C(C)(C)C)C(=O)C(=O)NCC` (some centres unmarked), the Ki is reported as greater than 1000 nM.
`C=CCNC(=O)C(=O)C(CCCC)NC(=O)[C@@H]1CC(C)(C)CN1C(=O)[C@@H](NC(=O)OC(C)(C)C)C(C)(C)C` (some centres unmarked) showed a Ki greater than 1000 nM.
`C=CCC(NC(=O)[C@@H]1[C@H]2[C@@H](CN1C(=O)[C@@H](NC(=O)OC(C)(C)C)C(C)(C)C)C2(C)C)C(=O)C(=O)NCC(=O)NCc1cccc(C)c1` (some centres unmarked) gave a Ki of 101 to 1000 nM.
`C=CCC(NC(=O)[C@@H]1[C@@H]2[C@H](CN1C(=O)[C@@H](NC(=O)OC(C)(C)C)C(C)(C)C)C2(C)C)C(=O)C(=O)NCC(=O)NCc1ccccc1C` (some centres unmarked) was tested, and the Ki was 1 to 100 nM.
Work on `C=CCNC(=O)C(=O)C(CCC)NC(=O)[C@@H]1[C@@H]2[C@H](CN1C(=O)[C@@H](NC(=O)[C@H](CC(C)C)NS(C)(=O)=O)C(C)(C)C)C2(C)C` (some centres unmarked) yielded a Ki of 101 to 1000 nM.
`C=CCNC(=O)C(=O)C(CCC)NC(=O)[C@@H]1[C@@H]2[C@H](CN1C(=O)[C@@H](NC(=O)[C@H](CC(C)C)NS(C)(=O)=O)C1CCCCC1)C2(C)C` (some centres unmarked) gave a Ki of 101 to 1000 nM.
Molecule `CCCC(NC(=O)[C@@H]1[C@@H]2[C@H](CN1C(=O)[C@@H](NC(=O)OC(C)(C)C)C(C)(C)C)C2(C)C)C(=O)C(=O)NOC` (some centres unmarked) has a Ki greater than 1000 nM.
`CCCC(NC(=O)[C@@H]1[C@@H]2[C@H](CN1C(=O)[C@@H](NC(=O)OC(C)(C)C)C(C)(C)C)C2(C)C)C(=O)C(=O)NOCC` (some centres unmarked) gave a Ki greater than 1000 nM.
`C=CCCNC(=O)C(=O)C(CCC)NC(=O)[C@@H]1[C@@H]2[C@H](CN1C(=O)[C@@H](NC(=O)OC(C)(C)C)C(C)(C)C)C2(C)C` (some centres unmarked) was tested, and the Ki was greater than 1000 nM.
`C=CCC(NC(=O)[C@@H]1[C@@H]2[C@H](CN1C(=O)[C@@H](NC(=O)OC(C)(C)C)C(C)(C)C)C2(C)C)C(=O)C(=O)NCC(=O)NCc1cccnc1` (some centres unmarked) gave a Ki of 101 to 1000 nM.
For `CCCC(NC(=O)C1CC(C)(C)CN1C(=O)[C@@H](NC(=O)OC(C)(C)C)C(C)(C)C)C(=O)C(=O)NCC(=O)NCc1ccccc1` (some centres unmarked), the Ki was greater than 1000 nM.
For `C=CCCC(NC(=O)C1[C@@H]2[C@H](CN1C(=O)[C@@H](NC(=O)OC(C)(C)C)C(C)(C)C)C2(C)C)C(=O)C(=O)NCC(=O)CCc1ccccc1` (some centres unmarked), the Ki was 101 to 1000 nM.
Work on `C=CCCC(NC(=O)C1[C@@H]2[C@H](CN1C(=O)[C@@H](NC(=O)OC(C)(C)C)C(C)(C)C)C2(C)C)C(=O)C(=O)NCCC(=O)Cc1ccccc1` (some centres unmarked) yielded a Ki of 101 to 1000 nM.
`C=CCNC(=O)C(=O)C(CCC)NC(=O)C1[C@H]2[C@@H](CN1C(=O)C(NC(=O)Cc1ccccc1)C(C)(C)C)C2(C)C` (some centres unmarked) gave a Ki greater than 1000 nM.
With `CCCC(NC(=O)C1C2CCC(C2)N1C(=O)[C@@H](NC(=O)OC(C)(C)C)C1CCCCC1)C(=O)C(=O)NCC(=O)OCc1ccccc1` (some centres unmarked) the Ki was greater than 1000 nM.
